Reference: PubChem BioAssay AID1508624 (National Center for Advancing Translational Sciences (NCATS), 2021)
About 120 (0.25%) of roughly 48,000 compounds were called active. Another 4% or so got no clear call; they are omitted. Calls follow the shape of the dose curve; as a rule, active = well fitted activation curve with a large enough effect; inconclusive = small, poorly fitted or top-dose-only effect, or another doubt; inactive = no such curve, though single readings can be large or run the other way. The list shows a part of the results.

Assay: Primary qHTS for Identification of Small Molecule Activators of Huntingtin-Antisense Promoter Activity; also: nearly all actives have a fitted effect of over 55% in size
Conditions: HEK293 HTT-AS promoter firefly luciferase reporter, 24 h; series mostly up to 57.5 µM; activity change, positive = activation: at the top concentration
Outline: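 Firefly luciferase signal from promoter-reporter HEK293 cells was scaled between vehicle (0%) and zero RLU (-100%). Compounds were tested at final concentrations of up to 57.5 uM over 24 h at 37 degrees C. PTC124 at 50 uM final served as control inhibitor.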
Potency is read from the fitted curve at half-maximal effect.

Activity change, positive = activation, inactive:
CCCc1nn2c(=O)cc(COC(=O)c3ccc(NC(=O)CCc4ccccc4)cc3)nc2s1 -15.9%
CC(=O)Nc1nnc(S(N)(=O)=O)s1 -7.19%
Cc1ccc(C(=O)CSc2ncc3c(n2)-c2ccccc2N(Cc2ccc(Cl)cc2)S3(=O)=O)cc1 -11.9%
CCCCOc1ccc(C(=O)Nc2ccc(F)cc2F)cc1 -21.8%
CC(=O)Nc1c(I)cc(I)c(C(=O)O)c1I -6.32%
CCCCOc1ccc(CNC(=O)c2ccc(-c3nc(CN4CCc5ccccc54)c(C)o3)cc2)cc1 -23%
Cc1cc2cc3c(C)cc(=O)oc3c(C)c2o1
CCOC(=O)c1cnc2c(ccc3ccccc32)c1Nc1ccccc1OC -10.4% [at 11.5 µM, percent change from vehicle, -100% = no light]
Cc1ccc(S(=O)(=O)CCC(=O)Nc2ccc(Br)cc2C)cc1 -25.8%
COc1ccc(NC(=O)Cn2c(=O)cc(C)c3c(C)nn(-c4cccc(Cl)c4C)c32)cc1OC -9.81%
O=C(NCCc1csc(-c2ccc(F)cc2)n1)c1cccs1 -15.8%
O=C(NC1CC(=O)N(c2ccc3c(c2)OCCO3)C1)c1c(F)cccc1Cl (stereo unspecified) -14.1%
CCOC(=O)c1cc(-c2ccccc2)n(CC(=O)NC2CCC(C)CC2)c1C (stereo unspecified) -3.93%
COc1ccc(-c2noc(CSc3nnc(Cc4ccccc4)n3-c3ccccc3)n2)cc1OC -34.8%
Cc1ccc2c(c1)c(=O)c(C(=O)c1ccc3c(c1)OCO3)cn2Cc1cccc(F)c1 -18.1%
COCCNc1oc(-c2ccc(COc3ccc(OC)cc3)o2)nc1C#N -20%
Cc1ccc(-c2nn(-c3ccc(F)cc3F)c3c2cnc2c(F)cccc23)cc1 -14.6%
Cc1ccc(NC(=O)CSc2nc3ccccc3c3nc(CCc4c(C)n[nH]c4C)nn23)c(C)c1 -0.24%
NC1=N[C@@]2(c3cc(NC(=O)c4ccc(F)cn4)ccc3F)COC[C@@H]2CS1 -26.7%
CCc1cccc(C)c1NC(=O)C1CCN(c2nn3c(=O)cc(C)nc3s2)CC1 -8.25%
COc1ccc(-c2cc(C(F)(F)F)nc(SCC(=O)N3CCCCC3C)n2)cc1OC (stereo unspecified) -13.7%
Cc1ccc2oc(=O)c3cc(C(=O)Nc4ccccc4C(N)=O)sc3c2c1 -8.15%
O=C1CCCc2cc(S(=O)(=O)NCC3CCC(C(=O)NCc4ccccc4Cl)CC3)ccc2N1 (stereo unspecified) -15.7%
COc1ccc(CCNC(=O)c2cc3c(s2)-c2ccccc2OC3)cc1OC -18.7%
Fc1ccc(N2CCN(c3ncnc4c3nc3n4CCCCC3)CC2)cc1 -43.5%
COc1ccc(S(=O)(=O)c2c(O)c3ccc(C(=O)NCc4ccccc4)cc3[nH]c2=O)cc1 -14.9%
CCOC(=O)c1cnc2c(ccc3ccccc32)c1Nc1ccc(OCC)cc1 -4.34%
CCOCCCn1c(=N)c(C(=O)NCc2cccnc2)cc2c(=O)n3cc(C)ccc3nc21 1.92%
CCOc1ccc(Nc2cc(C)nc3nc(Cc4ccc(Cl)cc4)nn23)cc1 -23.2%
Cc1ccc(-n2nc3c(N4CCC(C(=O)NC(C)c5ccccc5)CC4)nnc(C)c3c2C)cc1 (stereo unspecified) -14.9%
COc1ccccc1N1CCN(C(=O)c2c(C)oc3ncn(CC(C)C)c(=O)c23)CC1 5.41%
O=C(Cn1ccc2ccccc2c1=O)NCCC(=O)Nc1ccc(F)cc1F -3.59%
O=C(CCCl)NCCc1ccccc1 1.63%
CCOC(=O)c1cccc(NC(=O)c2cc(S(=O)(=O)N3CCCC(C)C3)cn2C)c1 (stereo unspecified) -36.2%
CC1=C(C(N)=O)C(c2ccc(C)cc2)n2nc(SCc3ccccc3F)nc2N1 (stereo unspecified) -0.546%
CC(=O)Nc1ccccc1-c1nc2ccccc2n(CC(=O)c2ccc(Br)cc2)c1=O -18.2%
COc1cccc(CNC(=O)CSc2nnc(C)c3c(C)n(-c4ccccc4)nc23)c1OC -18.9%
CCOC(=O)C1CCCN(C(=O)Cn2ncc3c(C)n(Cc4ccccc4F)c(C)c3c2=O)C1 (stereo unspecified) -23%
NC1(Cc2ccc(Cl)cc2)CCN(c2ncnc3[nH]ccc23)CC1 -36.2%
COC(=O)CNC(c1ccccc1)c1cc(Br)ccc1NC(=O)c1ccccc1 (stereo unspecified) -14.3%
COc1cccc(-n2cc(C(=O)Nc3cc(OC)c(OC)c(OC)c3)c3ccccc3c2=O)c1 -24.2%
CCCn1c(=O)c2c(nc3n2CCN3c2ccc(C)cc2)n(C)c1=O -1.71%
CC[C@@H](C)[C@@H](C(=O)Nc1ccc(C)cc1)N1Cc2ccccc2C1=O -23.2%
Cc1ccc(CN(C(=O)COc2ccc(Cl)cc2C)C2CCS(=O)(=O)C2)o1 (stereo unspecified) -20.4%
CC1=C(CO)C(=O)O[C@@H]([C@@H](C)[C@H]2CC[C@H]3[C@@H]4C[C@H]5O[C@]56[C@@H](O)C=CC(=O)[C@]6(C)[C@@H]4CC[C@]23C)C1 -94.8%
CSc1ccc(C2c3c(oc4cc(C)cc(C)c4c3=O)C(=O)N2CCO)cc1 (stereo unspecified) 6.52%
Cc1nc2sc(C(=O)N(C)c3ccccc3)c(NC(=O)c3ccccc3Cl)c2c(C)c1C -16.1%
COc1ccc(C2C(C(=O)Nc3ccccc3OC)=C(C)Nc3c(C(=O)Nc4ccccc4)cnn32)c(OC)c1 (stereo unspecified) -6.91%
CCN(CC)C(=O)C1CN2CCc3cc(OC)c(OC)cc3C2CC1OC(C)=O (stereo unspecified) -3.89%
Cc1ccc(OCC(=O)N(Cc2ccco2)Cc2ccco2)cc1C -32.7%
CC(C)CCNC(=O)CCn1c(=O)c2cccn2c2cccnc21 -4.26%
COc1cn(CC(=O)Nc2ccccc2)c(CN2CCCCC2)cc1=O -9.43%
CCN(CC)Cc1c(NC(=O)c2ccc(OC)cc2)sc2c1CCCC2 22.9%
COc1ccc(CCNC(=O)Cn2c(=O)c3cccn3c3ccc(F)cc32)c(OC)c1 -7.51%
CC(=O)Nc1ccc(Nc2nc3c(S(=O)(=O)c4cccc(Cl)c4)nnn3c3ccsc23)cc1 -10.8%
Cc1ccc(C)c(-c2nnc(NC(=O)c3ccc4c(c3)OCCO4)o2)c1 -14.4%
Cc1oc2ncn(CC(C)C)c(=O)c2c1C(=O)NCCCN1CCC(C)CC1 12.9%
O=C(COc1ccccc1F)OCc1cc(=O)n2nc(C3CC3)sc2n1 -11.7%
COc1ccc(-c2cc(C(=O)Oc3cccc(C)c3)c3cc(C)ccc3n2)cc1 -9.5%
Cc1ccc(NC(=O)CN2C(=O)CCc3cc(S(=O)(=O)N4CCCCC4)ccc32)cc1C -12.7%

Potency, active:
CC(C)Oc1ccc2c(=O)c(-c3ccccc3)coc2c1 863 nM
